These are yes or no findings as the source states them, for the method shown. Binding seen in cells or lysates may run through a third protein. Some binding calls cover weakened binding; strength is not graded here. For part of these data: Sequences can lack the tags named with a protein. One block for each binder: values may come before it.
Key:
GST-GAIP = target: T1, GST-GAIP (UniProt P49795); assay: pull-down; 10 µg GST or GST fusion prebound to glutathione Sepharose beads, incubated with in vitro translated [35S]Met-labeled GIPC-PDZ in 50 mM Tris HCl pH 7.4, 100 mM NaCl, 0.5% NP-40 overnight at 4°C; autoradiography; only the target purified
T1 sequence: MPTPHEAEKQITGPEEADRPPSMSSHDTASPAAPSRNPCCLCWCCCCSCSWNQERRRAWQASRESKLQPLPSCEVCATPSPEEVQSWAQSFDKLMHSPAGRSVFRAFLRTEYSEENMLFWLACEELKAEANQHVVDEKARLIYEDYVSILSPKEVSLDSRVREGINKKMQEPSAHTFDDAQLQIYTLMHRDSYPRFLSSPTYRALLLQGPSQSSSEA

Sequences of proteins named here, by UniProt entry; tags and fusion partners are left off. A change or cut given only in a name is not applied to a line headed by its entry. A line that says so, or that is headed by a name, gives the form on record, which may keep a tag or linker. Residues count along the entry.
UniProt P61793: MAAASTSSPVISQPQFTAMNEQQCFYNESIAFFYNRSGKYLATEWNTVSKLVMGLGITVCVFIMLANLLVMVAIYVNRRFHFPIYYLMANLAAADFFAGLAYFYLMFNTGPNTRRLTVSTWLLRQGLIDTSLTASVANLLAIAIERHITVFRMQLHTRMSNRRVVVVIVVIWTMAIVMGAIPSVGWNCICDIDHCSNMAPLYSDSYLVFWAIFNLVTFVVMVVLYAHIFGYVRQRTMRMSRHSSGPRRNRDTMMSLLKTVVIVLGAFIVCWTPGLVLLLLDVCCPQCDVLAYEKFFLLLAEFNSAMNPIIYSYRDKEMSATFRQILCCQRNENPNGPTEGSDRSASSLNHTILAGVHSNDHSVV
GST-mouse LPA1 tail (aa 311-364): residues 311-364 of P61793
GST-LPA1ΔC: residues 311-361 of P61793
GST-LPA1-AAA (P61793, form named): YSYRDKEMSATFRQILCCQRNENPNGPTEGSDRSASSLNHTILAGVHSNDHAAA

GST-LPA1-AAA (mouse) = GST-LPA1-AAA (mouse) (UniProt P61793); assay: as above
[1] = target: GST-mouse LPA1 tail (aa 311-364) (mouse) (UniProt P61793); assay: as above
[2] = target: N-terminally tagged FLAG-LPA1 (UniProt P61793); assay: co-IP; HEK293 cell lysates (1% NP-40, 50 mM Tris pH 8.0, 150 mM NaCl) with mouse anti-FLAG IgG overnight at 4°C, protein G-Sepharose, immunoblot; cells serum starved or stimulated with 10 µM LPA for 5, 15 or 30 min (Fig. 2B), or in 10% serum (Fig. 6A)
GST-LPA1ΔC (mouse) = GST-LPA1ΔC (mouse) (UniProt P61793); assay: pull-down; GST or GST fusion immobilised on glutathione beads, incubated 4-15 h with lysates of HEK293 cells transfected with FLAG-GIPC; immunoblot with anti-GIPC IgG; only the target purified
[3] = target: GST-mouse LPA1 tail (aa 311-364) (mouse) (UniProt P61793); assay: as above

B2: C-terminally tagged GIPC-GFP (protein, UniProt O14908 1-333)
chain: MPLGLGRRKKAPPLVENEEAEPGRGGLGVGEPGPLGGGGSGGPQMGLPPPPPALRPRLVFHTQLAHGSPTGRIEGFTNVKELYGKIAEAFRLPTAEVMFCTLNTHKVDMDKLLGGQIGLEDFIFAHVKGQRKEVEVFKSEDALGLTITDNGAGYAFIKRIKEGSVIDHIHLISVGDMIEAINGQSLLGCRHYEVARLLKELPRGRTFTLKLTEPRKAFDMISQRSAGGRPGSGPQLGTGRGTLRLRSRGPATVEDLPSAFEEKAIEKVDDLLESYMGIRDTELAATMVELGKDKRNPDELAEALDERLGDFAFPDEFVFDVWGAIGDAKVGRY
binding [2]: binds

B3: FLAG-GIPC (protein, UniProt O14908 1-333)
chain: B2 chain
binding (GST-LPA1ΔC (mouse)): no binding | binding [3]: binds

B5: Endogenous GIPC (protein, UniProt O14908 1-333)
chain: B2 chain
binding [2]: binds

Other lines, results leading:

binding (GST-GAIP): binds | binding (GST-LPA1-AAA (mouse)): no binding | binding [1]: binds
B1: GIPC PDZ domain (aa 125-225) (domain or fragment, UniProt O14908 125-225)
chain: AHVKGQRKEVEVFKSEDALGLTITDNGAGYAFIKRIKEGSVIDHIHLISVGDMIEAINGQSLLGCRHYEVARLLKELPRGRTFTLKLTEPRKAFDMISQRS
modifications: [35S]Met-labeled

binding [2]: binds
B4: full-length GIPC (protein, UniProt O14908 1-333)
chain: B2 chain

binding [2]: binds
B6: HA-APPL (protein, UniProt Q9UKG1 1-709)
chain: MPGIDKLPIEETLEDSPQTRSLLGVFEEDATAISNYMNQLYQAMHRIYDAQNELSAATHLTSKLLKEYEKQRFPLGGDDEVMSSTLQQFSKVIDELSSCHAVLSTQLADAMMFPITQFKERDLKEILTLKEVFQIASNDHDAAINRYSRLSKKRENDKVKYEVTEDVYTSRKKQHQTMMHYFCALNTLQYKKKIALLEPLLGYMQAQISFFKMGSENLNEQLEEFLANIGTSVQNVRREMDSDIETMQQTIEDLEVASDPLYVPDPDPTKFPVNRNLTRKAGYLNARNKTGLVSSTWDRQFYFTQGGNLMSQARGDVAGGLAMDIDNCSVMAVDCEDRRYCFQITSFDGKKSSILQAESKKDHEEWICTINNISKQIYLSENPEETAARVNQSALEAVTPSPSFQQRHESLRPAAGQSRPPTARTSSSGSLGSESTNLAALSLDSLVAPDTPIQFDIISPVCEDQPGQAKAFGQGGRRTNPFGESGGSTKSETEDSILHQLFIVRFLGSMEVKSDDHPDVVYETMRQILAARAIHNIFRMTESHLLVTCDCLKLIDPQTQVTRLTFPLPCVVLYATHQENKRLFGFVLRTSSGRSESNLSSVCYIFESNNEGEKICDSVGLAKQIALHAELDRRASEKQKEIERVKEKQQKELNKQKQIEKDLEEQSRLIAASSRPNQASSEGQFVVLSSSQSEESDLGEGGKKRESEA

Reference: publication PMC3493537
